PubChem BioAssay AID743255 (National Center for Advancing Translational Sciences (NCATS), 2014)
In all, about 390,000 compounds went through this assay and about 910 (0.23%) were called active. Another 5% or so got no clear call; they are omitted. The call rests on the fitted dose curve; in most records, active means well fitted inhibition curve with a large enough effect; inconclusive means small, poorly fitted or top-dose-only effect; inactive means no such curve, though single readings can be large or run the other way. The entries are a selection whose mix differs from that of the whole data set.

These compounds were tested against Ubiquitin carboxyl-terminal hydrolase 1 (Homo sapiens) (UniProt O94782) (assay: Inhibitors of USP1/UAF1: Primary Screen). Conditions: recombinant USP1/UAF1, Ub-Rhodamine cleavage fluorescence; activity change, negative = inhibition: at 57.1 µM (top of the series).
Source text: Deubiquitinating enzymes (DUBs) are a class of enzymes that can cleave isopeptide bond formed between the C-terminal carboxylate of ubiquitin and a lysine side-chain amino group on the target protein. Among them, ubiquitin specific proteases (USPs) constitute the largest DUB family. Human USPs are emerging as promising targets for pharmacological intervention because of their connection to a number of human diseases, including prostate, colon and breast cancer (1, 2), pediatric acute lymphoblastic leukemia (3), and familial cylindromatosis (4). The advantage of inhibiting USPs lies in the potential specificity of therapeutic intervention that can lead to better efficacy and reduce nonspecific side effects. In a collaboration between the University of Delaware and the NIH Chemical Genomics Center, a high-throughput screen assay was developed to screen for USP1/UAF1 inhibitors. This miniaturized assay has a fluorescent read-out and is used to screen the NIH Molecular Libraries Small Molecule Repository (MLSMR) in order to identify a small molecule that inhibits USP1. NIH Chemical Genomics Center [NCGC] NIH Molecular Libraries Probe Centers Network [MLPCN] MLPCN Grant: DA030552 Assay Submitter (PI): Zhihao Zhuang, University of Delaware 1. Priolo, C., et al. (2006) The isopeptidase USP2a protects human prostate cancer from apoptosis. Cancer Res 66, 8625-8632 2. Popov, N., et al. (2007) The ubiquitin-specific protease USP28 is required for MYC stability. Nat Cell Biol 9, 765-774 3. De Pitta, C., et al. (2005) A leukemia-enriched cDNA microarray platform identifies new transcripts with relevance to the biology of pediatric acute lymphoblastic leukemia. Haematologica 90, 890-898 4. Kovalenko, A., et al. (2003) The tumour suppressor CYLD negatively regulates NF-kappaB signalling by deubiquitination. Nature 424, 801-805
3 microliters of reagents (buffer in columns 3 and 4 as negative control and 1nM USP1/UAF1 complex in columns 1, 2, and 5-48) are dispensed into Greiner black solid bottom 1536-well assay plates. Compounds are then transferred via Kalypsys pin tool equipped with 1536-pin array (10nl slotted pins, V&P Scientific, San Diego, CA). Following an incubation step of 15 min at room temperature, 1ul of Ub-Rho substrate (150nM final concentration) is added to initiate the reaction. The plates are immediately centrifuged at 1000 rpm for 15 seconds, and subsequently transferred to a ViewLux high-throughput CCD imager (PerkinElmer) wherein kinetic measurements of fluorescence are acquired using 480 nm excitation/540 nm emission filter set (6 reads every 60 seconds, see Table 1). All reagents are diluted in an assay buffer consisting of 50mM HEPES (pH 7.8), 0.5mM EDTA, 0.1 mg/ml BSA, 1mM TCEP, and 0.01% Tween-20.
Further: nearly all actives have a fitted effect of over 60% in size.
On the % scale 0 is the no-effect control and ±100 the full control effect; potency means the concentration at half of the fitted maximal effect.

Chain of UniProt O94782 (O94782 whole entry, looked up): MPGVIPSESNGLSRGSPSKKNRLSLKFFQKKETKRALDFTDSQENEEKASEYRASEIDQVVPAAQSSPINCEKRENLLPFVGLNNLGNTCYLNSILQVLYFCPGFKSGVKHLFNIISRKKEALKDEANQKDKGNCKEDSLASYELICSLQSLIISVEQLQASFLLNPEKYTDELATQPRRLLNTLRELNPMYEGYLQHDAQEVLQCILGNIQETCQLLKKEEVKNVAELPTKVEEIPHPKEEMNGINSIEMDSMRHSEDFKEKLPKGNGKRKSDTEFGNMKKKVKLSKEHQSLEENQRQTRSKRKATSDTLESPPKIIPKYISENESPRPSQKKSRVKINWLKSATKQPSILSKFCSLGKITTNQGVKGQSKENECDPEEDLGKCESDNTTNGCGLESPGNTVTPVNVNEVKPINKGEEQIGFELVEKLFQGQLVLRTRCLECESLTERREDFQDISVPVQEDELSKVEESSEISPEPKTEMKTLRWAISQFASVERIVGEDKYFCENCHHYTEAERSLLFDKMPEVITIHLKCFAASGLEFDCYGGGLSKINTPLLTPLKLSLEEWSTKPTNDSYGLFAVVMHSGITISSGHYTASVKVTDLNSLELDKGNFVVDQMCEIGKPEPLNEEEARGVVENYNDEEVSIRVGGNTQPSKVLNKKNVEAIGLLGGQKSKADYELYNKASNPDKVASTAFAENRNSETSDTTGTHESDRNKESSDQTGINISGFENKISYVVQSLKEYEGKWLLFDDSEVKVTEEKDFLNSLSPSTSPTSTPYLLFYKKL

Activity change, negative = inhibition, inactive:
C=CC[C@@H](Cc1ccc(F)cc1)C(=O)OC[C@H]1CCCN1C(=O)[C@H](CC=C)CC(=O)N(CCO)Cc1ccccc1 -15.9%
CCOC(=O)C1=C(C)N[C@@]2(O)c3ccccc3C(=O)[C@@]12O -21.3%
Cc1oc2ccc(NS(=O)(=O)c3ccc(F)cc3)cc2c1C(=O)O -11.1%
COC(=O)c1cc2occc2n1Cc1nc(-c2ccccc2C)oc1C 3.44%
C=CCC[C@@H](Cc1ccc(F)cc1)C(=O)OC[C@@H](Cc1c[nH]c2ccccc12)NC(=O)[C@@H](CC=C)CC(=O)N(CCO)Cc1ccccc1 -20.5%
C[C@@H]1COC(=O)[C@H](CC(=O)OC(C)(C)C)C/C=C\C[C@@H](CC(=O)N(CCO)Cc2ccccc2)C(=O)N1 2.23%
CN(C)c1ccc(/C=C2\c3ccccc3C(=O)N2c2ccccc2)cn1 36%
Cc1nn(CCC(=O)NCc2ccc(N(C)C)cc2)c(=O)c2nn(-c3ccccc3)c(C)c12 -19.4%
O=C(C1=C[C@@H](c2ccc(Br)cc2)C[C@@H](OCCCCO)O1)N1CCN(Cc2ccccc2)CC1 -6%
O[C@@H]1CN(CC2CCCCC2)[C@@H](c2ccc(Cl)cc2)C[C@H]1n1cc(C2CC2)nn1 -14.8%
C[C@@H]1CN([C@H](C)CO)C(=O)CCCn2nncc2CO[C@@H]1CN(C)S(=O)(=O)c1ccccc1F -14.4%
CCOC(=O)c1c(NC(=O)/C=C/c2ccc(OC)cc2)sc2c1CCC(C)C2 (stereo unspecified) 31.4%
C[C@@H]1CN([C@H](C)CO)C(=O)CCCn2nncc2CO[C@H]1CN(C)Cc1cccc2c1OCCCO2 -0.113%
CCc1nn(CC(=O)NCCCc2ccccc2)c(=O)c2cc3c(OC)cccc3n12 -22.7%
CC1=NN(c2ccccc2)C(=O)/C1=C/C=C/c1ccccc1 -21.3%
CCOC(=O)C(=O)Nc1nnc2n1CCS2 29.4%
O=C(Cn1ccc2ccccc2c1=O)NCCC(=O)Nc1ccc(F)cc1F 2.07%
COC(C[C@H]1O[C@@H]1[C@@H](O)COCc1ccccc1)OC -17.1%
Cc1cccc(NC(=O)Nc2ccc(Br)cc2)n1 -13.3%
Cc1cccc([C@H](NC(=O)OC(C)(C)C)C(=O)OC(C)(C)C)c1 -1.65%
C=CC[C@@H](CC(=O)N[C@@H](CO)Cc1ccccc1)C(=O)N[C@H](COC(=O)[C@@H](CC=C)Cc1ccc(F)cc1)Cc1c[nH]c2ccccc12 -21%
C#CCNC(=O)C1=C[C@H](c2coc3ccccc3c2=O)[C@@H](CCCO)[C@H](OCC)O1 -8.68%
Cc1cc(C)n(-c2cccc(C(=O)O)c2)n1 -1.12%
Cn1cc(C(=O)Nc2ccc(C#N)cc2)c2ccccc2c1=O -17.6%
C[C@@H]1COC(=O)[C@@H](CC(=O)OC(C)(C)C)C/C=C\C[C@H](CC(=O)NCCO)C(=O)N1 -24.9%
Cc1cc(C)c(NC(=O)Cn2nnc(C(=O)Nc3ccc(F)cc3F)c2N)c(C)c1 -9.66%
CCOC(=O)/C=C1\SCC(=O)N1CC(=O)Nc1ccccc1OC(F)F -21.9%
Cn1cc(/C=C2\SC(=S)N(NC(=O)c3ccccc3)C2=O)c2ccccc21 53.3%
CCO[C@@H]1c2c(ccc3ccc(=O)oc23)OC(C)(C)[C@@H]1O -25.1%
O=C(CC1N=C2c3ccccc3N=C(SCc3ccccc3Cl)N2C1=O)NCc1cccs1 (stereo unspecified) 45.2%
C=CCC[C@@H](Cc1ccc(F)cc1)C(=O)O[C@H](CNC(=O)[C@H](CC=C)CC(=O)N(CCO)Cc1ccccc1)c1ccccc1 -21.9%
COc1ccc(C)cc1Nc1n[n+](-c2ccccc2)c(-c2cc([N+](=O)[O-])cc(OC)c2O)s1 83.2%
CCN1C(=O)[C@H]2[C@@H](c3ccc(-c4ccc(OC)cc4)c(OC)c3)N3CCCC[C@@]3(C(=O)OC)[C@H]2C1=O -10.1%
COc1cc(CNc2ccc3[nH]c(=O)[nH]c3c2)cc(Br)c1OCc1ccc(F)cc1 -9.46%
C[C@@H]1CN([C@@H](C)CO)C(=O)CCCn2nncc2CO[C@@H]1CN(C)C(=O)NC1CCCCC1 -14.1%
CC(NC(=O)C1CCN(S(=O)(=O)c2ccc3nc4c(c(C(=O)O)c3c2)CCCC4)CC1)c1ccccc1 (stereo unspecified) -24.1%

Potency, active:
CSC1=NSC2=NC(=O)/C(=C/c3coc4ccc(O)cc4c3=O)C(=N)N12 22.4 µM
CCOC(=O)/C(=C/C1=CC(=C/N(C)C)/C(=O)O1)C(C)=O 31.6 µM
Cc1[nH][nH]c(=O)c1C(c1c(C)[nH][nH]c1=O)c1cn(Cc2ccccc2Cl)c2ccccc12 28.2 µM
CCOC(=O)/C(=C/C=C1\Sc2cc(OCC)c(OCC)cc2N1CC)C(C)=O 22.4 µM
CCCCN1C(=O)C2Cc3c([nH]c4ccccc34)CN2C1=S (stereo unspecified) 25.1 µM
